The text below walks through data of PMC12136788.

B1: chr2:9584341:9584442:-|3pUTR|ENSG00000134308|msi1_unk|FALSE|overlapping (ssRNA)
RNA: GGGAGUUCUACAGUCCGACGAUCUUUCCAUGCAGAUUUGUGCACAUGUGAGAGGGUGUCCAGUUUGUCUAGUGAUUGUUAUUUAGAGAGUUGGACCACUAUUGUGUGUUGCUAAUCAUUGACUGUAGUCCCAAAAAAGCCUUGCAACAGAGGAUUGAGCAUCA
B2: chr14:57493492:57493715:-|CDS|ENSG00000100557|control|control|control (ssRNA)
RNA: GGGAGUUCUACAGUCCGACGAUCGAGUCACUCUAAGACUCACCUUAGGGUGAUCAAAGUAGCACCUUUGCAAAACAAAGAGGUAGAGACUCCCUCGGCUGGCCGUGUGGACUUUGCAUUCAAUCAGAAUUUGGAAGAAAAGACCAACAGAGGAUUGAGCAUCA
B3: chr2:105361111:105361195:-|3pUTR|ENSG00000115641|msi1_unk|total|mutant (ssRNA)
RNA: GGGAGUUCUACAGUCCGACGAUCCUUUCUCACCCAGGCAAUCUUGCCUUCUGGUUUCUUCCAGCCACAUUGAGACUUUCUUCCCGUGCUUUUCAGUGAUACUCACGUUUGCUUAAACCCUUCCGUGCUUUGUGACCGUUCAGUCAACAGAGGAUUGAGCAUCA
B4: chr7:94910433:94910544:+|CDS|ENSG00000158528|unk|FALSE|bound_elsewhere (ssRNA)
RNA: GGGAGUUCUACAGUCCGACGAUCCUGGAAAAAACAGAUGGCUCAGUUGUUAAGUUGGAGUCUUCUGUUUCUGAACGAAUUAGUAGAUUUGACACUAUGUACGAUGGCCCUUCAUAUUCCAAGUUCACUGAGACUCGAAAGAUGCAACAGAGGAUUGAGCAUCA
B5: chr9:33053202:33053303:-|CDS|ENSG00000122692|msi1|total|mutant (ssRNA)
RNA: GGGAGUUCUACAGUCCGACGAUCCCUAAAACUUCCGAAAUUUUUAUACCUAAAAAAGGUUUAUAACUUAAAUUUCUGUGUGGCCGAUCUGGAAUAUGAAGACCACAGAAUGUUCAAAUACCUUUAAAUCCCUGGGCAGCACCGCAACAGAGGAUUGAGCAUCA
B6: ENSG00000136451:be:win_3451|3pUTR|ENSG00000136451|bound_else_gene|NA|bound_elsewhere_windowed (ssRNA)
RNA: GGGAGUUCUACAGUCCGACGAUCCAAAAUGUAGAGAAAAAUAUGUAGCUAUGACUUUGUUACAACUGUUCUUAUCCACAGUACAAAAAUGGUUUGUUUUUAAUAUGUAGAGCAUUAUGUGUGGACUACUGGAAGGACUCGUGUCAACAGAGGAUUGAGCAUCA
B7: chr7:44064065:44064166:+|3pUTR|ENSG00000136279|msi1|FALSE|unique (ssRNA)
RNA: GGGAGUUCUACAGUCCGACGAUCGCACACCCUUCUAGCCUUUCCAGGACUCAACAAGCUUUAAGGUCAUUCAGAUGCUAAUUUAGACUGCCCUUGUGUCAGAAUACUAAGGUGGGAGGCGGAGCGGAGGUGCCAGUCACUCUGCAACAGAGGAUUGAGCAUCA
B8: chr15:49876277:49876523:-|three_prime_utr|ENSG00000104043|control|control|control (ssRNA)
RNA: GGGAGUUCUACAGUCCGACGAUCUCUGCUUUUUAACAAGCGUAAAUUUUUCAUUUGCGUGUUGCAUGGAAUCUACACCUCAUUAGUCCUUUUCUUCAUCCCCUAUGGGGCCUUUUACAACGUGGCUGGAGAAGAUGGGCAACACAACAGAGGAUUGAGCAUCA
B9: ENSG00000107863:be:win_2551|CDS|ENSG00000107863|bound_else_gene|NA|bound_elsewhere_windowed (ssRNA)
RNA: GGGAGUUCUACAGUCCGACGAUCUUAAUUCGCCGUCAGCUCUCACAUGACCACGAAUCUGUUGGCCCUCCUAGCCUGGAUGCUCAGCCCAACUCAAAGACAGAAAGAUCAAAAUCAUAUGAUGAGGGUCUGGAUGAUUACAGACAACAGAGGAUUGAGCAUCA
B10: chr2:27781378:27781788:-|three_prime_utr|ENSG00000171174|control|control|control (ssRNA)
RNA: GGGAGUUCUACAGUCCGACGAUCAACACAGUCAUCUUACCCUUACAAAAAAGACCUUCCGCUUACUCUGUUUUGAUUGCUAUUAGUCCCAAAAUAAAUAUACCUGGGAAUAAAAUGUACUUGGGGGUGGCUGCUCCUGGCUAACAACAGAGGAUUGAGCAUCA
B11: chr12:133204733:133204837:+|3pUTR|ENSG00000090612|unk|total|mutant (ssRNA)
RNA: GGGAGUUCUACAGUCCGACGAUCCAAAAAGACCGCCGACAAUACACAGGAAAACUGAAUUCCGUAACCACUCUGAAAAUUUUCCGCAGCAAGUCAUACCUUUUUUUAAAAAGUUCAUACAGGUGAGGAACCAUGUUAAACGUUCAACAGAGGAUUGAGCAUCA
B12: ENSG00000107863:be:win_6251|3pUTR|ENSG00000107863|bound_else_gene|NA|bound_elsewhere_windowed (ssRNA)
RNA: GGGAGUUCUACAGUCCGACGAUCUAUUGUUAAAAUUAGAUAACUUACUUACAUUGAAUAAACGAAUGCGUUUUAUUGGUAACAGAUAUCAUUACAUUUACCAGUUUUAACACAGGUGGAUACAGAACUUCCAUUCUUUAGUCACAACAGAGGAUUGAGCAUCA
B13: chr5:24509697:24509799:-|CDS|ENSG00000040731|unk|total|mutant (ssRNA)
RNA: GGGAGUUCUACAGUCCGACGAUCACUCGACUAUGAGAGCCGAAGACUUUAUACUCUGAAAGUCGAAGCAGAAAACACCCAUGCCGAUCCCCGUUUUUAUUACCCCGGACCAUUUAAAGAUACUACCACCGUGAAAAUCUCUAUCAACAGAGGAUUGAGCAUCA
B14: chr1:180885099:180885158:+|3pUTR|ENSG00000143324|msi1_unk|total|mutant (ssRNA)
RNA: GGGAGUUCUACAGUCCGACGAUCAGCUGAAGCUAUGCCUUAUUAUGCAUCCACAUGUAUGGUCCCUGCCGCGUGACCUUUACCCGCUCUGAAUCAGAAGACAGAGCUAUUUCAGAGGCUCUGUGUGCCCUCACCCGACCGUUUCAACAGAGGAUUGAGCAUCA
B15: chr19:45224777:45224913:-|CDS|ENSG00000283632|control|control|control (ssRNA)
RNA: GGGAGUUCUACAGUCCGACGAUCGCCGAGCGCCUGGCCCGGGUGGGGCCCCCAGAAAGCGAGCCGGCCCGGGAAGCAUCUGCUAGUGCUCUGGACCAUGUGACCCGGCUCUGCCACCGUGUCGUGGCCAACCUGCUGUUCCAGCAACAGAGGAUUGAGCAUCA
B16: chr14:70725571:70725672:-|3pUTR|ENSG00000006432|unk|total|mutant (ssRNA)
RNA: GGGAGUUCUACAGUCCGACGAUCUAUUGUCCGAAACGCAUUACCAAAUGCAUCUCUUCUGUCGGAUCAGCGUAUUCCCCGAUCCGGAAUUCAAAUUAAUGAAAAUUCACAUAUGAAAGGAAAAUCCAUUGCUAUUUCUGGAGACAACAGAGGAUUGAGCAUCA
B17: chr12:56416428:56416529:-|3pUTR|ENSG00000111602|msi1|FALSE|unique (ssRNA)
RNA: GGGAGUUCUACAGUCCGACGAUCAUGUUCUUACCCAUUCUUGGAAACGUCAGCUUUCUUGCUUCCUGUGCUUCCAGCCGAGGUAGGGCAAAGGUGAGAUUGAGAAAAUAGCCAUUCAGCUCAGGAAGGCUUCUAAGUAAAGGACAACAGAGGAUUGAGCAUCA
B18: ENSG00000124766:be:win_2351|3pUTR|ENSG00000124766|bound_else_gene|NA|bound_elsewhere_windowed (ssRNA)
RNA: GGGAGUUCUACAGUCCGACGAUCCAGACCCCGGAGGCGUGGAGGAGAGGAGACUGUUUGAUGUGGUACAGGGGCAGUCAGUGGAGGGCGAGUGGUUUCGGAAAAAAAAAAAGAAAAAAAGAAAAAAAAAGAAAAAAAAAAGAUCAACAGAGGAUUGAGCAUCA
B19: chr1:51356092:51356193:-|3pUTR|ENSG00000085832|unk|FALSE|unique (ssRNA)
RNA: GGGAGUUCUACAGUCCGACGAUCUUCAGAGAUAAGGAAAAAUAUUUUGCACAGAUUUACUCCACUAUGGAAAAGGGAUGCUGUAGGUUGAACCAUUAUAGCCUCAGAUUCGAUCUUUUCCUAACUAAAAAUAUUAAAGCCUCACAACAGAGGAUUGAGCAUCA
B20: chr21:43756582:43756683:+|3pUTR|ENSG00000160209|msi1|total|mutant (ssRNA)
RNA: GGGAGUUCUACAGUCCGACGAUCGCAUUCGAACUUUUGGUUCUUACUUUGCUGCUCGUUCCGUCCCUGGGGAUUUCAGAUCUCCGGCUGUUGUUUCACCGUAUGGGAGGGUUGAUGUGAGCUUGCUUGGAGACACACGGUGCACAACAGAGGAUUGAGCAUCA
B21: ENSG00000107863:be:win_1401|CDS|ENSG00000107863|bound_else_gene|NA|bound_elsewhere_windowed (ssRNA)
RNA: GGGAGUUCUACAGUCCGACGAUCGCUAAUGAAGUAUUGUCCAAGAAGUGCAUCUCAAGGAGCACUGACGUCUCCAUCUGUUAGUUUUAGUAAUCAUAGAACUCGUUCAUGGGAUUAUAUUGAGGGACAGGAUGAAACCUUAGACAACAGAGGAUUGAGCAUCA
B22: chr1:33300114:33300153:+|3pUTR|ENSG00000160094|msi1_unk|FALSE|overlapping (ssRNA)
RNA: GGGAGUUCUACAGUCCGACGAUCCCCUGCCCCCAGCCCCCACAGACACACCCCAAUCUGAAAGCCAUGCGUGUCGGUGUAUAUAGGAACCAUGUACAGAGCCCAGAGAAGCCCCCUACAUCCCCCCGGGAAAAAAAAGAAAACCAACAGAGGAUUGAGCAUCA

The other results are listed elsewhere or left out.

This experiment deals with T1, UNK ZnF1-6 (called full-length) (human, UniProt Q9C0B0 30-357).
T1 sequence: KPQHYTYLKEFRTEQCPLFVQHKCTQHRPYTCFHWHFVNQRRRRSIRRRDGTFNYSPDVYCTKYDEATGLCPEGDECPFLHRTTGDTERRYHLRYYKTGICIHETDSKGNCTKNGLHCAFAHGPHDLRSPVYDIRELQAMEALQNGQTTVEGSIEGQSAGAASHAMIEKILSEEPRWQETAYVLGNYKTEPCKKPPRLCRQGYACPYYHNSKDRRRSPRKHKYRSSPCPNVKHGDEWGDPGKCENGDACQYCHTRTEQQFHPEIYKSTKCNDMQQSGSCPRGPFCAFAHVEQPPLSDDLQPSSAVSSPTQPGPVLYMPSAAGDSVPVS
The experiment is described as follows: nsRBNS (natural sequence RNA bind-n-seq); RBNS binding buffer (assumed for nsRBNS): 25 mM Tris pH 7.5, 150 mM KCl, 3 mM MgCl2, 0.01% Triton X-100, 500 ug/ml BSA, 20 U/ml SUPERase-In, 4 C; UNK is unkempt and MSI1 is Musashi-1; names of the RNAs are library labels; protein concentration not given here; high values mean tight binding.
Consider B1, for which the binding signal was determined as 0.516 enrichment R.
As for B2, the figure is 0.515 enrichment R; as for B3, 0.511 enrichment R; as for B4, 0.459 enrichment R.
As for B5, the figure is 0.514 enrichment R.
In turn, B6 gave a binding signal of 0.668 enrichment R.
In turn, B7 registered a binding signal of 0.816 enrichment R.
As for B8, the figure is 1.06 enrichment R.
The molecule B9 returned a binding signal of 0.436 enrichment R.
As for B10, the figure is 0.934 enrichment R; as for B11, 0.289 enrichment R; as for B12, 1.8 enrichment R.
As for B13, the binding signal is 0.449 enrichment R.
As for B14, the figure is 0.559 enrichment R; as for B15, 1.06 enrichment R.
As for B16, the figure is 0.223 enrichment R.
With B17 the figure was 0.587 enrichment R.
B18 came in with a binding signal of 1.36 enrichment R.
With B19 the figure was 0.488 enrichment R.
With B20 the figure was 0.696 enrichment R.
With B21 the figure was 1.22 enrichment R; with B22, 0.882 enrichment R.
